Results on 44 compounds are retold here after article PMC4336329 (PLoS ONE, 2015).

The campaign covered roughly 310,000 compounds. About 2,200 (0.71%) showed an effect of 50% or more. Effects have a minus sign here. The list shows a part of the results.

Sequence of human ether-à-go-go-related gene (hERG) potassium channel (Q12809 whole entry, looked up): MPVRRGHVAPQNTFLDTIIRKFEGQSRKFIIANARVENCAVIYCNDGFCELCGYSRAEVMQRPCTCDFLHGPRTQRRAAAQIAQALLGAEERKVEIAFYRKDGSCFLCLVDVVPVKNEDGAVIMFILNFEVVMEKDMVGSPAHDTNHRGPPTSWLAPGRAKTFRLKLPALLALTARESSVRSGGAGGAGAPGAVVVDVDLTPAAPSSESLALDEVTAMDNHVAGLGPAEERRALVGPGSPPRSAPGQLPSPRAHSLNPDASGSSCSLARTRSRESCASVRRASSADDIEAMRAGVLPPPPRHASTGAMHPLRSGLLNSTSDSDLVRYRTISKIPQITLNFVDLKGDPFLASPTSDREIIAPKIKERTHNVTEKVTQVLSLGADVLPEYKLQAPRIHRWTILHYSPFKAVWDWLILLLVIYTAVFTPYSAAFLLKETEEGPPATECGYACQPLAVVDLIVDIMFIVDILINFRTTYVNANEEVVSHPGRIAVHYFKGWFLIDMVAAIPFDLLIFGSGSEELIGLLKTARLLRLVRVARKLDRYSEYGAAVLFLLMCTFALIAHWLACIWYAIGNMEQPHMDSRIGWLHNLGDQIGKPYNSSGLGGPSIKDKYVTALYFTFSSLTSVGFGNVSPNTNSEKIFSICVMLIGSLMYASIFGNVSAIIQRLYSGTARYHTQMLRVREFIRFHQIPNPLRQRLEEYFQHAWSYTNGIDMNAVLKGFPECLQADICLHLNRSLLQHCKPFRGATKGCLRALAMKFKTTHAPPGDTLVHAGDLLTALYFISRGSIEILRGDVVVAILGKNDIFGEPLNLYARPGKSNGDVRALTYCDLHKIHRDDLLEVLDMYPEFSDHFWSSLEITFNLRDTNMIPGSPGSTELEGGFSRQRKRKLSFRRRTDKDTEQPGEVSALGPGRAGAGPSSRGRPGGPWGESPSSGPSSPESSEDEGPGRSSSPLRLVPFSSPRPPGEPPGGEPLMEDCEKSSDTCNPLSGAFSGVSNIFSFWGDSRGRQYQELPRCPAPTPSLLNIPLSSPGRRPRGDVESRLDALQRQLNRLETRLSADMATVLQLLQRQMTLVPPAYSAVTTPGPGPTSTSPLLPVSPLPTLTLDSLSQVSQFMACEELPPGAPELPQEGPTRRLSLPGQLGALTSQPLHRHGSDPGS

The experiment concerns the target human ether-à-go-go-related gene (hERG) potassium channel (human, UniProt Q12809). Kind of experiment: primary screen, population patch clamp on CHO cells stably expressing hERG.
Consider `CCc1ccc2c(c1)cc(CN(Cc1ccco1)C(C)=O)c1nnnn12`, for which the “hERG current change (%, negative = inhibition) at 1uM” value was -12.3%. The same measure for `CC1(C)CC(NC(=O)COc2ccc3ccc(=O)oc3c2)CC(C)(C)N1`: 13.6%. In the case of `Cc1nc2c3ccccc3n(Cc3ccccc3F)c2s1`, the “hERG current change (%, negative = inhibition) at 1uM” value was 3.13%. The same measure for `COC(=O)c1ccc(CNC(=O)CSc2nc3ccccc3[nH]2)cc1`: 2.3%; for `O=C(NCC1CCCO1)c1cc(-c2ccccc2F)no1` (centres unmarked): 27.5%. For `COC(=O)c1ccc(NC(=O)Cn2nc(SC)n(N)c2=S)cc1`, the “hERG current change (%, negative = inhibition) at 1uM” value is 16.6%. To `NC(=O)c1ccccc1NS(=O)(=O)c1ccccc1` belongs 0.164%; to `COc1ccccc1NC(=O)Nc1cccc(C)n1`, 5.95%.

On to `Cc1cc(/C=C(/C#N)C(=O)Nc2ccccc2)c(C)n1-c1cccnc1`, for which the “hERG current change (%, negative = inhibition) at 1uM” value is recorded as -11.6%. To `O=C(COC(=O)c1ccc(O)cc1O)c1ccc2c(c1)OCO2` belongs 10.7%; to `CC1(C)CC(CCNCc2ccc3c(c2)OCO3)(Cc2ccccc2)CCO1.Cl` (centres unmarked), -6.23%; to `CCc1nnc(NS(=O)(=O)c2ccc(NC(=O)c3ccc(Br)cc3)cc2)s1`, 11.2%. For `COc1ccc(N2C(=O)CC(N(CCc3ccc(S(N)(=O)=O)cc3)C(=S)Nc3ccccc3)C2=O)cc1` (centres unmarked), the “hERG current change (%, negative = inhibition) at 1uM” value was determined as 6.04%. As for `O=C(c1cnn(C(=O)c2ccc(O)cc2)c1)c1ccccc1O`, the “hERG current change (%, negative = inhibition) at 1uM” value amounted to 11.7%.

In the case of `Cc1ccc(NC(=O)CCSc2nnc(Cc3ccccc3)o2)cc1`, the “hERG current change (%, negative = inhibition) at 1uM” value is on record as 3.96%. For the compound `CCC(=O)n1nc(-c2ccc(Cl)cc2)nc1N`, the “hERG current change (%, negative = inhibition) at 1uM” value is listed as -0.583%. To `Nc1[nH]ncc1-c1ccc(Cl)cc1` belongs 13.2%; to `CC1CCN(C(=O)CSc2nc3ncccc3[nH]2)CC1`, 12.1%. To `CC1CCCCN1C(=O)CCn1c(=S)oc2ccccc21` (centres unmarked) belongs 10.8%; to `COc1ccc(/C=N/N2C(=O)C3C4C=CC(C4)C3C2=O)cc1[N+](=O)[O-]` (centres unmarked), 4.78%. To `O=C(CCn1c(=O)c2sccc2n(CC(=O)OCc2ccccc2)c1=O)NCc1ccccc1` belongs -1.57%.

For `O=C(O)C1CCCCC1C(=O)Nc1cccc(Br)c1` (centres unmarked), the “hERG current change (%, negative = inhibition) at 1uM” value amounted to 6.34%. The same measure for `NNc1n[nH]c(=S)n1N`: 14.1%; for `O=C(Nc1nc(-c2ccc(S(=O)(=O)N3CCCCCC3)cc2)cs1)c1ccccc1`: 3.52%; for `CCc1ccc2c(c1)C(c1cccs1)=NNC(c1cccnc1)=N2`: -4.28%.

`CC1CCCCC1NC(=O)c1cc(=O)[nH]c2ccccc12` (centres unmarked): the “hERG current change (%, negative = inhibition) at 1uM” value is given as 20.8%.

Consider `Cc1ccc(NC(=O)COc2cccc3ccccc23)c(O)c1`, for which the “hERG current change (%, negative = inhibition) at 1uM” value is reported as 11.9%. For the compound `O=C1/C(=C\c2ccc3ccccc3c2)CCCc2ccccc21`, the “hERG current change (%, negative = inhibition) at 1uM” value stood at 0.188%. The same measure for `CCn1cnc2cc(NCc3ccc(OC)cc3)ccc21`: -17.5%. The same measure for `COc1cccc(C(c2c(O)nc(SC)n(C)c2=O)c2c(O)nc(SC)n(C)c2=O)c1`: 4.95%; for `O=C(CCn1c(=O)c2ccccc2n(CC(=O)N2CCN(c3ccccc3)CC2)c1=O)NCc1ccco1`: -1.01%; for `COc1cc(N2CCCC2)ccc1[N+](=O)[O-]`: 6.12%. `C/C(=N\NC(=O)c1cccnc1)c1nnn(-c2nonc2N)c1C`: the “hERG current change (%, negative = inhibition) at 1uM” value is 1.64%.

For `O=C(O)c1ccccc1N1C(=O)C2C3c4ccccc4C(Br)(c4ccccc43)C2C1=O` (centres unmarked), the “hERG current change (%, negative = inhibition) at 1uM” value was 11.4%. The same measure for `Cc1ccc(C(=O)N2CCOCC2)cc1S(=O)(=O)Nc1cccc(C)c1C`: -3.16%; for `COc1ccc(/C=N/Nc2nc(-c3cccc(S(=O)(=O)N4CCCC4)c3)cs2)cc1OC`: 18.1%. To `CCOC(CNC(=O)CCc1c(C)nc2nc(C)nn2c1C)OCC` belongs 15.1%; to `CCC1Oc2ccccc2N(CC(=O)NCc2cccs2)C1=O` (centres unmarked), 12.4%; to `COc1cc(NC(=O)c2ccc3c(c2)OCO3)ccc1NC(=O)c1ccco1`, 15.2%. The same measure for `O=C(/C=C/c1cc2c(cc1Br)OCO2)NCc1ccc(Cl)cc1`: 10.6%. In the case of `O=c1[nH]c(/C(Cl)=C/c2c(F)cccc2Cl)nc2cc(Cl)ccc12`, the “hERG current change (%, negative = inhibition) at 1uM” value is reported as 2.15%. On to `CCCC(C(=O)NC(C)(C)C)N(CC1CCCO1)C(=O)c1snc(C(N)=O)c1N` (centres unmarked), for which the “hERG current change (%, negative = inhibition) at 1uM” value was 6.13%. To `COc1ccc(-n2nc3c(c2NC(=O)c2ccc(S(=O)(=O)N4CCOCC4)cc2)CS(=O)(=O)C3)cc1` belongs 17%.

On to `COc1ccccc1C(CNC(=O)C(C)Oc1ccc(Br)cc1)N1CCCC1` (centres unmarked), for which the “hERG current change (%, negative = inhibition) at 1uM” value is 3.99%.
